B1: Caulobacter ParB omega fusion; a variant is named by its letters at X, in order, B8GW30 (parent)
chain: MESVVVGEPGMSEGRRGLGRGLSALLGEVDAAPAQAPGEQLGGSREAPIEILQRNPDQPRRTFREEDLEDLSNSIREKGVLQPILVRPSPDTAGEYQIVAGERAWRAAQRAGLKTVPIMVRELDDLAVLEIGIIENVQRADLNVLEEALSYKVLMEKFERTQENIAQTIGKSXSHVANXMRLLXLPDEVQSYLVSGELTAXHARAIAAAADPVALAKQIIEGGLSVRETEALARKAPNLSAGKSKGGRPPRVKDTDTQALESDLSSVLGLDVSIDHRGSTGTLTITYATLEQLDDLCNRLTRGI

In all, about 81,000 sequences were measured (“one-hybrid fitness for binding NBS DNA”: median about -0.1, highest 2% from about 0.36 on). Some of the results follow.

Variants of B1 are the subject of this test. The experiment in a line: one-hybrid fitness for binding NBS DNA (the Noc-binding site; scaled: cognate 1, non-cognate 0); higher = stronger binding. As to conditions: with NBS DNA site. The essentials: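 The reporter was HIS3, with the binding site 19 bp from the promoter, in E. coli USO used for bacterial one-hybrid selection of Caulobacter ParB libraries with four specificity codons randomised. Growth was on M9 lacking histidine, with 0.1 mM IPTG and 5 mM 3-AT, for 48 hours at 37°C. Illumina sequencing covered plasmids before and after selection; three replicate libraries were pooled and variants with under 10 reads dropped. A fitness score is the log change in variant-to-wild-type read ratio, rescaled to the cognate and non-cognate references.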
With HRQQ, the “one-hybrid fitness for binding NBS DNA” value is ≤ 0.2.

For the variant NSVL, the “one-hybrid fitness for binding NBS DNA” value was ≤ 0.2.

TRAI: the “one-hybrid fitness for binding NBS DNA” value is ≤ 0.2.

Take RRGF: the “one-hybrid fitness for binding NBS DNA” value was ≤ 0.2.

Turning to GSYT, the “one-hybrid fitness for binding NBS DNA” value was ≤ 0.2.

Regarding ARIS, the “one-hybrid fitness for binding NBS DNA” value was ≤ 0.2.

Turning to SLPP, the “one-hybrid fitness for binding NBS DNA” value was ≤ 0.2.

On to CRIA, for which the “one-hybrid fitness for binding NBS DNA” value was ≤ 0.2.

QKLC: the “one-hybrid fitness for binding NBS DNA” value is ≤ 0.2.

In the case of VTSG, the “one-hybrid fitness for binding NBS DNA” value is ≤ 0.2.

LCIS: the “one-hybrid fitness for binding NBS DNA” value was ≤ 0.2.

Take RYFK: the “one-hybrid fitness for binding NBS DNA” value was ≤ 0.2.

Consider DAVC, for which the “one-hybrid fitness for binding NBS DNA” value was ≤ 0.2.

As for VDWP, the “one-hybrid fitness for binding NBS DNA” value is ≤ 0.2.

For the variant RKYH, the “one-hybrid fitness for binding NBS DNA” value is 0.228.

Take GRDW: the “one-hybrid fitness for binding NBS DNA” value is ≤ 0.2.

For the variant WEKT, the “one-hybrid fitness for binding NBS DNA” value is ≤ 0.2.

As to ALHP, the “one-hybrid fitness for binding NBS DNA” value was ≤ 0.2.

In the case of RPTQ, the “one-hybrid fitness for binding NBS DNA” value was ≤ 0.2.

For the variant GLGR, the “one-hybrid fitness for binding NBS DNA” value is ≤ 0.2.

With YRKW, the “one-hybrid fitness for binding NBS DNA” value is ≤ 0.2.

Consider HNGV, for which the “one-hybrid fitness for binding NBS DNA” value is ≤ 0.2.

As to LRKF, the “one-hybrid fitness for binding NBS DNA” value was ≤ 0.2.

Turning to PRIG, the “one-hybrid fitness for binding NBS DNA” value is ≤ 0.2.

For SPDR, the “one-hybrid fitness for binding NBS DNA” value was ≤ 0.2.

Consider YNNF, for which the “one-hybrid fitness for binding NBS DNA” value was ≤ 0.2.

As to RPIE, the “one-hybrid fitness for binding NBS DNA” value is ≤ 0.2.

As for RNKT, the “one-hybrid fitness for binding NBS DNA” value was found to be 0.46.

In the case of TTLS, the “one-hybrid fitness for binding NBS DNA” value is ≤ 0.2.

Take NSKR: the “one-hybrid fitness for binding NBS DNA” value is ≤ 0.2.

With NDID, the “one-hybrid fitness for binding NBS DNA” value was ≤ 0.2.

STVC: the “one-hybrid fitness for binding NBS DNA” value is ≤ 0.2.

With IIDE, the “one-hybrid fitness for binding NBS DNA” value was ≤ 0.2.

For YSRD, the “one-hybrid fitness for binding NBS DNA” value was ≤ 0.2.

Regarding GAKP, the “one-hybrid fitness for binding NBS DNA” value is ≤ 0.2.

Turning to PVSI, the “one-hybrid fitness for binding NBS DNA” value is ≤ 0.2.

As to RKDP, the “one-hybrid fitness for binding NBS DNA” value was ≤ 0.2.

Turning to RCVW, the “one-hybrid fitness for binding NBS DNA” value was ≤ 0.2.

Regarding YSDN, the “one-hybrid fitness for binding NBS DNA” value was ≤ 0.2.

For IWCG, the “one-hybrid fitness for binding NBS DNA” value is ≤ 0.2.

Turning to RLQY, the “one-hybrid fitness for binding NBS DNA” value was ≤ 0.2.

On to RINE, for which the “one-hybrid fitness for binding NBS DNA” value was ≤ 0.2.

As to VDAM, the “one-hybrid fitness for binding NBS DNA” value is ≤ 0.2.

Regarding TDTK, the “one-hybrid fitness for binding NBS DNA” value is ≤ 0.2.

For NTRC, the “one-hybrid fitness for binding NBS DNA” value is ≤ 0.2.

LFVI: the “one-hybrid fitness for binding NBS DNA” value is ≤ 0.2.

As to RESH, the “one-hybrid fitness for binding NBS DNA” value was ≤ 0.2.

As to ATEI, the “one-hybrid fitness for binding NBS DNA” value was ≤ 0.2.

As for QQYR, the “one-hybrid fitness for binding NBS DNA” value is 0.578.

VYGC: the “one-hybrid fitness for binding NBS DNA” value is ≤ 0.2.

Take CMSI: the “one-hybrid fitness for binding NBS DNA” value was ≤ 0.2.

Consider FMYS, for which the “one-hybrid fitness for binding NBS DNA” value is ≤ 0.2.

As to FGGA, the “one-hybrid fitness for binding NBS DNA” value is ≤ 0.2.

In the case of VLSC, the “one-hybrid fitness for binding NBS DNA” value is ≤ 0.2.

With PAHF, the “one-hybrid fitness for binding NBS DNA” value is ≤ 0.2.

RFCM: the “one-hybrid fitness for binding NBS DNA” value is ≤ 0.2.

As to VKQR, the “one-hybrid fitness for binding NBS DNA” value is ≤ 0.2.

For SILR, the “one-hybrid fitness for binding NBS DNA” value is ≤ 0.2.

On to THYY, for which the “one-hybrid fitness for binding NBS DNA” value is ≤ 0.2.

Turning to SPWG, the “one-hybrid fitness for binding NBS DNA” value was ≤ 0.2.

Turning to ARNV, the “one-hybrid fitness for binding NBS DNA” value is ≤ 0.2.

As to DLVM, the “one-hybrid fitness for binding NBS DNA” value is ≤ 0.2.

Consider QCSM, for which the “one-hybrid fitness for binding NBS DNA” value was ≤ 0.2.

Take SVLV: the “one-hybrid fitness for binding NBS DNA” value was ≤ 0.2.

Regarding LYRC, the “one-hybrid fitness for binding NBS DNA” value was ≤ 0.2.

Regarding RQDP, the “one-hybrid fitness for binding NBS DNA” value was ≤ 0.2.

For the variant ATWE, the “one-hybrid fitness for binding NBS DNA” value is ≤ 0.2.

Consider TTTK, for which the “one-hybrid fitness for binding NBS DNA” value was ≤ 0.2.

In the case of QLPT, the “one-hybrid fitness for binding NBS DNA” value is 0.207.

TSVF: the “one-hybrid fitness for binding NBS DNA” value was ≤ 0.2.

Regarding KTRK, the “one-hybrid fitness for binding NBS DNA” value is ≤ 0.2.

In the case of AATC, the “one-hybrid fitness for binding NBS DNA” value is ≤ 0.2.

As for TVVD, the “one-hybrid fitness for binding NBS DNA” value is ≤ 0.2.

NKIS: the “one-hybrid fitness for binding NBS DNA” value is ≤ 0.2.

As for RPSM, the “one-hybrid fitness for binding NBS DNA” value was ≤ 0.2.

As to GRPY, the “one-hybrid fitness for binding NBS DNA” value is ≤ 0.2.

As to EFNR, the “one-hybrid fitness for binding NBS DNA” value is ≤ 0.2.

Take RHTR: the “one-hybrid fitness for binding NBS DNA” value turned out to be 0.459.

On to QFNC, for which the “one-hybrid fitness for binding NBS DNA” value is ≤ 0.2.

Take HMMC: the “one-hybrid fitness for binding NBS DNA” value is ≤ 0.2.

For PLGS, the “one-hybrid fitness for binding NBS DNA” value is ≤ 0.2.

Regarding YAIF, the “one-hybrid fitness for binding NBS DNA” value is ≤ 0.2.

As for RIQH, the “one-hybrid fitness for binding NBS DNA” value is ≤ 0.2.

Turning to RNKG, the “one-hybrid fitness for binding NBS DNA” value was ≤ 0.2.

With QCLP, the “one-hybrid fitness for binding NBS DNA” value is ≤ 0.2.

With YLGN, the “one-hybrid fitness for binding NBS DNA” value was ≤ 0.2.

In the case of LTCG, the “one-hybrid fitness for binding NBS DNA” value is ≤ 0.2.

As to MKRA, the “one-hybrid fitness for binding NBS DNA” value is ≤ 0.2.

With KACD, the “one-hybrid fitness for binding NBS DNA” value is ≤ 0.2.

With QCAG, the “one-hybrid fitness for binding NBS DNA” value is ≤ 0.2.

On to QIAL, for which the “one-hybrid fitness for binding NBS DNA” value is ≤ 0.2.

For NAHV, the “one-hybrid fitness for binding NBS DNA” value is ≤ 0.2.

For NTKM, the “one-hybrid fitness for binding NBS DNA” value is ≤ 0.2.

As to GLFD, the “one-hybrid fitness for binding NBS DNA” value was ≤ 0.2.

Take VLWS: the “one-hybrid fitness for binding NBS DNA” value was ≤ 0.2.

Consider PGTH, for which the “one-hybrid fitness for binding NBS DNA” value is ≤ 0.2.

NILL: the “one-hybrid fitness for binding NBS DNA” value was ≤ 0.2.

Turning to FIPM, the “one-hybrid fitness for binding NBS DNA” value was ≤ 0.2.

As for NPQA, the “one-hybrid fitness for binding NBS DNA” value is ≤ 0.2.

On to SQIC, for which the “one-hybrid fitness for binding NBS DNA” value was ≤ 0.2.

In the case of RISS, the “one-hybrid fitness for binding NBS DNA” value came to 0.358.

With SHII, the “one-hybrid fitness for binding NBS DNA” value is ≤ 0.2.

Take WRHY: the “one-hybrid fitness for binding NBS DNA” value is ≤ 0.2.

Turning to DKPS, the “one-hybrid fitness for binding NBS DNA” value is ≤ 0.2.

Consider SAGG, for which the “one-hybrid fitness for binding NBS DNA” value is ≤ 0.2.

As for GIKS, the “one-hybrid fitness for binding NBS DNA” value is ≤ 0.2.

In the case of ARCA, the “one-hybrid fitness for binding NBS DNA” value is ≤ 0.2.

With VATT, the “one-hybrid fitness for binding NBS DNA” value is ≤ 0.2.

Regarding LNRP, the “one-hybrid fitness for binding NBS DNA” value was ≤ 0.2.

As to SGYK, the “one-hybrid fitness for binding NBS DNA” value is ≤ 0.2.

As for SRRN, the “one-hybrid fitness for binding NBS DNA” value is ≤ 0.2.

As for PEKT, the “one-hybrid fitness for binding NBS DNA” value was ≤ 0.2.

On to RPRD, for which the “one-hybrid fitness for binding NBS DNA” value is ≤ 0.2.

Take KAPC: the “one-hybrid fitness for binding NBS DNA” value is ≤ 0.2.

Take KWCS: the “one-hybrid fitness for binding NBS DNA” value is ≤ 0.2.

With AFPR, the “one-hybrid fitness for binding NBS DNA” value is ≤ 0.2.

In the case of GKPV, the “one-hybrid fitness for binding NBS DNA” value was ≤ 0.2.

As for HSCA, the “one-hybrid fitness for binding NBS DNA” value was ≤ 0.2.

As for QHNG, the “one-hybrid fitness for binding NBS DNA” value was ≤ 0.2.

For QFAA, the “one-hybrid fitness for binding NBS DNA” value was ≤ 0.2.

As for TCGL, the “one-hybrid fitness for binding NBS DNA” value is ≤ 0.2.

With RHEF, the “one-hybrid fitness for binding NBS DNA” value was ≤ 0.2.

On to DETW, for which the “one-hybrid fitness for binding NBS DNA” value is ≤ 0.2.

For the variant WCSC, the “one-hybrid fitness for binding NBS DNA” value is ≤ 0.2.

Regarding RESC, the “one-hybrid fitness for binding NBS DNA” value was ≤ 0.2.

With HGSM, the “one-hybrid fitness for binding NBS DNA” value was ≤ 0.2.

With SRPF, the “one-hybrid fitness for binding NBS DNA” value was ≤ 0.2.

CRKH: the “one-hybrid fitness for binding NBS DNA” value is ≤ 0.2.

In the case of CSQR, the “one-hybrid fitness for binding NBS DNA” value was ≤ 0.2.

PASK: the “one-hybrid fitness for binding NBS DNA” value is ≤ 0.2.

For the variant PRVV, the “one-hybrid fitness for binding NBS DNA” value was ≤ 0.2.

SQHN: the “one-hybrid fitness for binding NBS DNA” value was ≤ 0.2.

Turning to KRMR, the “one-hybrid fitness for binding NBS DNA” value is 0.51.

As for YIQG, the “one-hybrid fitness for binding NBS DNA” value was ≤ 0.2.

As to KFGR, the “one-hybrid fitness for binding NBS DNA” value was ≤ 0.2.

Consider QYHL, for which the “one-hybrid fitness for binding NBS DNA” value was ≤ 0.2.

Take QLTN: the “one-hybrid fitness for binding NBS DNA” value is ≤ 0.2.

PCSQ: the “one-hybrid fitness for binding NBS DNA” value was ≤ 0.2.

For IRRQ, the “one-hybrid fitness for binding NBS DNA” value was ≤ 0.2.

For RLAC, the “one-hybrid fitness for binding NBS DNA” value is ≤ 0.2.

Regarding WMKS, the “one-hybrid fitness for binding NBS DNA” value is ≤ 0.2.

Take HEMV: the “one-hybrid fitness for binding NBS DNA” value is ≤ 0.2.

As for SHGM, the “one-hybrid fitness for binding NBS DNA” value is ≤ 0.2.

Consider RREQ, for which the “one-hybrid fitness for binding NBS DNA” value was ≤ 0.2.

Take SIPE: the “one-hybrid fitness for binding NBS DNA” value was ≤ 0.2.

For the variant PFNQ, the “one-hybrid fitness for binding NBS DNA” value is ≤ 0.2.

As for PHGM, the “one-hybrid fitness for binding NBS DNA” value is ≤ 0.2.

As for YVMT, the “one-hybrid fitness for binding NBS DNA” value is ≤ 0.2.

For IVKF, the “one-hybrid fitness for binding NBS DNA” value was ≤ 0.2.

Regarding CPLS, the “one-hybrid fitness for binding NBS DNA” value was ≤ 0.2.

Consider CVLT, for which the “one-hybrid fitness for binding NBS DNA” value was ≤ 0.2.

Take TCYW: the “one-hybrid fitness for binding NBS DNA” value was ≤ 0.2.

LWNT: the “one-hybrid fitness for binding NBS DNA” value was ≤ 0.2.

(Values after a collection of fitness landscapes (doi:10.1016/j.celrep.2020.107928).)
